# Results reported in the supplement of paper PMC8728848.
# Some of the results follow.
# B1: IDGF2 (Drosophila melanogaster), Q9V3D4 (protein)
# chain: MKAWIWFTFVACLFAASTEAASNLVCYYDSSSYTREGLGKLLNPDLEIALQFCSHLVYGYAGLRGENLQAYSMNENLDIYKHQFSEVTSLKRKYPHLKVLLSVGGDHDIDPDHPNKYIDLLEGEKVRQIGFIRSAYDLVKTYGFDGLDLAYQFPKNKPRKVHGDLGLAWKSIKKLFTGDFIVDPHAALHKEQFTALVRDVKDSLRADGFLLSLTVLPNVNSTWYFDIPALNGLVDFVNLATFDFLTPARNPEEADYSAPIYHPDGSKDRLAHLNADFQVEYWLSQGFPSNKINLGVATYGNAWKLTKDSGLEGVPVVPETSGPAPEGFQSQKPGLLSYAEICGKLSNPQNQFLKGNESPLRRVSDPTKRFGGIAYRPVDGQITEGIWVSYDDPDSASNKAAYARVKNLGGVALFDLSYDDFRGQCSGDKYPILRAIKYRLHHHHHH
# What was measured:
# Experiment in all cases: glycan array binding signal (z-score within array); higher = stronger binding
# Settings in all cases: glycan notation: IUPAC condensed, linker removed
# [1] = biological target: Man(a1-3)[Man(a1-6)]Man(a1-6)[Man(a1-3)]Man(b1-4)GlcNAc(b1-4)GlcNAc
# How it was run: (§1)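 Glycan array data came from 3228 arrays in the Consortium for Functional Glycomics database, and only arrays with an available protein sequence were kept. Glycan names were put into IUPAC-condensed notation, and columns mapping to the same glycan were averaged. The binding signal is a within-array Z-score, averaged across arrays of one protein sequence run at different concentrations or buffers and across linkers. A negative Z-score can be read as non-binding.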
# [2] = biological target: Man(a1-3)[Man(a1-6)]Man(b1-4)GlcNAc(b1-4)GlcNAc
# How it was run: as §1
# Man(b1-4)GlcNAc = biological target: Man(b1-4)GlcNAc
# How it was run: as §1
# Neu5Ac(a2-3)Gal = biological target: Neu5Ac(a2-3)Gal
# How it was run: as §1
# [3] = biological target: Neu5Ac(a2-3)Gal(b1-3)GalNAc
# How it was run: as §1
# [4] = biological target: Neu5Ac(a2-3)Gal(b1-3)GalNAc(b1-3)Gal(a1-4)Gal(b1-4)Glc
# How it was run: as §1
# [5] = biological target: Neu5Ac(a2-3)Gal(b1-3)GalNAc(b1-4)[Neu5Ac(a2-3)]Gal(b1-4)Glc
# How it was run: as §1
# [6] = biological target: Neu5Ac(a2-3)Gal(b1-3)GalNAc6S
# How it was run: as §1
# [7] = biological target: Neu5Ac(a2-3)Gal(b1-3)GlcNAc
# How it was run: as §1
# [8] = biological target: Neu5Ac(a2-3)Gal(b1-3)GlcNAc(b1-3)Gal(b1-3)GlcNAc
# How it was run: as §1
# [9] = biological target: Neu5Ac(a2-3)Gal(b1-3)GlcNAc(b1-3)Gal(b1-4)GlcNAc
# How it was run: as §1
# [10] = biological target: Neu5Ac(a2-3)Gal(b1-3)GlcNAc6S
# How it was run: as §1
# [11] = biological target: Neu5Ac(a2-3)Gal(b1-3)[Fuc(a1-4)]GlcNAc
# How it was run: as §1
# [12] = biological target: Neu5Ac(a2-3)Gal(b1-3)[Fuc(a1-4)]GlcNAc(b1-3)Gal(b1-4)[Fuc(a1-3)]GlcNAc
# How it was run: as §1
# [13] = biological target: Neu5Ac(a2-3)Gal(b1-3)[Neu5Ac(a2-3)Gal(b1-4)]GlcNAc
# How it was run: as §1
# [14] = biological target: Neu5Ac(a2-3)Gal(b1-3)[Neu5Ac(a2-6)]GalNAc
# How it was run: as §1
# Neu5Ac(a2-3)Gal(b1-4)Glc = biological target: Neu5Ac(a2-3)Gal(b1-4)Glc
# How it was run: as §1
# [15] = biological target: Neu5Ac(a2-3)Gal(b1-4)GlcNAc
# How it was run: as §1
# [16] = biological target: Neu5Ac(a2-3)Gal(b1-4)GlcNAc(b1-3)Gal(b1-3)GlcNAc
# How it was run: as §1
# [17] = biological target: Neu5Ac(a2-3)Gal(b1-4)GlcNAc(b1-3)Gal(b1-4)GlcNAc
# How it was run: as §1
# [18] = biological target: Neu5Ac(a2-3)Gal(b1-4)GlcNAc(b1-3)Gal(b1-4)GlcNAc(b1-3)Gal(b1-4)GlcNAc
# How it was run: as §1
# [19] = biological target: Neu5Ac(a2-3)Gal(b1-4)GlcNAc(b1-3)Gal(b1-4)[Fuc(a1-3)]GlcNAc
# How it was run: as §1
# [20] = biological target: Neu5Ac(a2-3)Gal(b1-4)GlcNAc(b1-6)[Gal(b1-3)]GalNAc
# How it was run: as §1
# [21] = biological target: Neu5Ac(a2-3)Gal(b1-4)GlcNAc6S
# How it was run: as §1
# [22] = biological target: Neu5Ac(a2-3)Gal(b1-4)[Fuc(a1-3)]GlcNAc
# How it was run: as §1
# [23] = biological target: Neu5Ac(a2-3)Gal(b1-4)[Fuc(a1-3)]GlcNAc(b1-3)Gal
# How it was run: as §1
# [24] = biological target: Neu5Ac(a2-3)Gal(b1-4)[Fuc(a1-3)]GlcNAc(b1-3)Gal(b1-4)GlcNAc
# How it was run: as §1
# [25] = biological target: Neu5Ac(a2-3)Gal(b1-4)[Fuc(a1-3)]GlcNAc(b1-3)Gal(b1-4)[Fuc(a1-3)]GlcNAc(b1-3)Gal(b1-4)[Fuc(a1-3)]GlcNAc
# How it was run: as §1
# [26] = biological target: Neu5Ac(a2-3)Gal(b1-4)[Fuc(a1-3)]GlcNAc6S
# How it was run: as §1
# [27] = biological target: Neu5Ac(a2-3)Gal6S(b1-4)GlcNAc
# How it was run: as §1
# [28] = biological target: Neu5Ac(a2-3)Gal6S(b1-4)[Fuc(a1-3)]GlcNAc
# How it was run: as §1
# Neu5Ac(a2-3)GalNAc = biological target: Neu5Ac(a2-3)GalNAc
# How it was run: as §1
# [29] = biological target: Neu5Ac(a2-3)GalNAc(b1-4)GlcNAc
# How it was run: as §1
# [30] = biological target: Neu5Ac(a2-3)[GalNAc(b1-4)]Gal(b1-4)Glc
# How it was run: as §1
# [31] = biological target: Neu5Ac(a2-3)[GalNAc(b1-4)]Gal(b1-4)GlcNAc
# How it was run: as §1
# [32] = biological target: Neu5Ac(a2-3)[Neu5Ac(a2-6)]GalNAc
# How it was run: as §1
# [33] = biological target: Neu5Ac(a2-6)Gal(b1-4)GlcNAc
# How it was run: as §1
# [34] = biological target: Neu5Ac(a2-6)Gal(b1-4)GlcNAc(b1-2)Man(a1-3)[Neu5Ac(a2-6)Gal(b1-4)GlcNAc(b1-2)Man(a1-6)]Man(b1-4)GlcNAc(b1-4)GlcNAc
# How it was run: as §1
# [35] = biological target: Neu5Ac(a2-6)Gal(b1-4)GlcNAc(b1-3)Gal(b1-4)GlcNAc
# How it was run: as §1
# [36] = biological target: Neu5Ac(a2-6)Gal(b1-4)GlcNAc(b1-3)Gal(b1-4)[Fuc(a1-3)]GlcNAc(b1-3)Gal(b1-4)[Fuc(a1-3)]GlcNAc
# How it was run: as §1
# [37] = biological target: Neu5Ac(a2-6)Gal(b1-4)GlcNAc6S
# How it was run: as §1
# Neu5Ac(a2-6)GalNAc = biological target: Neu5Ac(a2-6)GalNAc
# How it was run: as §1
# [38] = biological target: Neu5Ac(a2-6)GalNAc(b1-4)GlcNAc
# How it was run: as §1
# Neu5Ac(a2-8)Neu5Ac = biological target: Neu5Ac(a2-8)Neu5Ac
# How it was run: as §1
# [39] = biological target: Neu5Ac(a2-8)Neu5Ac(a2-3)Gal(b1-4)Glc
# How it was run: as §1
# [40] = biological target: Neu5Ac(a2-8)Neu5Ac(a2-3)[GalNAc(b1-4)]Gal(b1-4)Glc
# How it was run: as §1
# [41] = biological target: Neu5Ac(a2-8)Neu5Ac(a2-8)Neu5Ac
# How it was run: as §1
# [42] = biological target: Neu5Ac(a2-8)Neu5Ac(a2-8)Neu5Ac(a2-3)Gal(b1-4)Glc
# How it was run: as §1
# [43] = biological target: Neu5Ac(a2-8)Neu5Ac(a2-8)Neu5Ac(a2-3)[GalNAc(b1-4)]Gal(b1-4)Glc
# How it was run: as §1
# [44] = biological target: Neu5Ac(a2-8)Neu5Ac(a2-8)Neu5Ac(a2-8)Neu5Ac(a2-3)[GalNAc(b1-4)]Gal(b1-4)Glc
# How it was run: as §1
# [45] = biological target: Neu5Ac9Ac(a2-6)Gal(b1-4)GlcNAc
# How it was run: as §1
# [46] = biological target: Neu5Gc(a2-3)Gal(b1-3)GlcNAc
# How it was run: as §1
# [47] = biological target: Neu5Gc(a2-3)Gal(b1-3)[Fuc(a1-4)]GlcNAc
# How it was run: as §1
# Neu5Gc(a2-3)Gal(b1-4)Glc = biological target: Neu5Gc(a2-3)Gal(b1-4)Glc
# How it was run: as §1
# [48] = biological target: Neu5Gc(a2-3)Gal(b1-4)GlcNAc
# How it was run: as §1
# [49] = biological target: Neu5Gc(a2-3)Gal(b1-4)[Fuc(a1-4)]GlcNAc
# How it was run: as §1
# [50] = biological target: Neu5Gc(a2-6)Gal(b1-4)GlcNAc
# How it was run: as §1
# Neu5Gc(a2-6)GalNAc = biological target: Neu5Gc(a2-6)GalNAc
# How it was run: as §1
binder,measurement,setting,value
B1,glycan array binding signal (z-score),[1],0.541
same,glycan array binding signal (z-score),[2],-0.284
same,glycan array binding signal (z-score),Man(b1-4)GlcNAc,-0.223
same,glycan array binding signal (z-score),Neu5Ac(a2-3)Gal,0.247
same,glycan array binding signal (z-score),[3],-0.025
same,glycan array binding signal (z-score),[4],-0.258
same,glycan array binding signal (z-score),[5],-0.064
same,glycan array binding signal (z-score),[6],-0.062
same,glycan array binding signal (z-score),[7],-0.337
same,glycan array binding signal (z-score),[8],0.271
same,glycan array binding signal (z-score),[9],0.23
same,glycan array binding signal (z-score),[10],-0.052
same,glycan array binding signal (z-score),[11],-0.462
same,glycan array binding signal (z-score),[12],0.023
same,glycan array binding signal (z-score),[13],-0.113
same,glycan array binding signal (z-score),[14],-0.082
same,glycan array binding signal (z-score),Neu5Ac(a2-3)Gal(b1-4)Glc,-0.174
same,glycan array binding signal (z-score),[15],0.136
same,glycan array binding signal (z-score),[16],-0.415
same,glycan array binding signal (z-score),[17],-0.3
same,glycan array binding signal (z-score),[18],-0.081
same,glycan array binding signal (z-score),[19],0.063
same,glycan array binding signal (z-score),[20],0.619
same,glycan array binding signal (z-score),[21],-0.148
same,glycan array binding signal (z-score),[22],-0.219
same,glycan array binding signal (z-score),[23],0.239
same,glycan array binding signal (z-score),[24],0.148
same,glycan array binding signal (z-score),[25],-0.009
same,glycan array binding signal (z-score),[26],-0.155
same,glycan array binding signal (z-score),[27],-0.073
same,glycan array binding signal (z-score),[28],-0.382
same,glycan array binding signal (z-score),Neu5Ac(a2-3)GalNAc,-0.489
same,glycan array binding signal (z-score),[29],-0.449
same,glycan array binding signal (z-score),[30],-0.132
same,glycan array binding signal (z-score),[31],-0.224
same,glycan array binding signal (z-score),[32],-0.306
same,glycan array binding signal (z-score),[33],0.122
same,glycan array binding signal (z-score),[34],-0.267
same,glycan array binding signal (z-score),[35],0.193
same,glycan array binding signal (z-score),[36],-0.128
same,glycan array binding signal (z-score),[37],-0.019
same,glycan array binding signal (z-score),Neu5Ac(a2-6)GalNAc,0.389
same,glycan array binding signal (z-score),[38],-0.142
same,glycan array binding signal (z-score),Neu5Ac(a2-8)Neu5Ac,-0.092
same,glycan array binding signal (z-score),[39],-0.245
same,glycan array binding signal (z-score),[40],-0.271
same,glycan array binding signal (z-score),[41],-0.044
same,glycan array binding signal (z-score),[42],-0.12
same,glycan array binding signal (z-score),[43],-0.276
same,glycan array binding signal (z-score),[44],0.251
same,glycan array binding signal (z-score),[45],-0.132
same,glycan array binding signal (z-score),[46],-0.378
same,glycan array binding signal (z-score),[47],0.295
same,glycan array binding signal (z-score),Neu5Gc(a2-3)Gal(b1-4)Glc,0.215
same,glycan array binding signal (z-score),[48],0.16
same,glycan array binding signal (z-score),[49],-0.122
same,glycan array binding signal (z-score),[50],0.622
same,glycan array binding signal (z-score),Neu5Gc(a2-6)GalNAc,0.345
